Target: T1, mouse LEP-R extracellular domain (mLEP-RECD) (mouse, UniProt P48356 22-839)
T1 sequence (looked up): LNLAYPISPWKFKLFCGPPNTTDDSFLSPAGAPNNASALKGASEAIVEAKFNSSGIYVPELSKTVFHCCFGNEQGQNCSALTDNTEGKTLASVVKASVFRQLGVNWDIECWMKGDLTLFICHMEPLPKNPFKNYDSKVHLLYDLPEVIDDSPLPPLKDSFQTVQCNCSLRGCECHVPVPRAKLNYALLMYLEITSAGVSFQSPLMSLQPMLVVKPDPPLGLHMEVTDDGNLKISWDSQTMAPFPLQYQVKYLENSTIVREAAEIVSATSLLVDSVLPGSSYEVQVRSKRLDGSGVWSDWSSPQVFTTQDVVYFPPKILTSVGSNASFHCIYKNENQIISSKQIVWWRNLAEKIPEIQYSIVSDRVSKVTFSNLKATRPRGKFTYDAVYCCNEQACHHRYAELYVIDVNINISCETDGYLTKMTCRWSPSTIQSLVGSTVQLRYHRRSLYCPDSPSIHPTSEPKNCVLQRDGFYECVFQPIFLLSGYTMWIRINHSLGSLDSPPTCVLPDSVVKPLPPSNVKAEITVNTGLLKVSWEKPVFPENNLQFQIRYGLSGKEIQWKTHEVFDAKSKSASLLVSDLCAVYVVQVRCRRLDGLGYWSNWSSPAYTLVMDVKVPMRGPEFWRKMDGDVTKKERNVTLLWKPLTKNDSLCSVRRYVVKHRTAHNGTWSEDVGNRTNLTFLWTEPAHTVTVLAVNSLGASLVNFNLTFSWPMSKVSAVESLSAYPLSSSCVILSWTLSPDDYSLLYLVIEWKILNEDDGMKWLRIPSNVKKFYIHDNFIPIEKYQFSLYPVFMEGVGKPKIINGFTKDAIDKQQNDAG
Test: SEC-MALLS

binding result: binds
B1: murinized human Leptin G139L (ligand)
chain: not shown

Reference: article doi:10.1101/2022.12.01.518327 (bioRxiv, 2022)
